# Counter-ions that a name gives are not always drawn. This is one part of the list. Many values rest on one well or one pass, so single values are uncertain.
# Test system: Beas-2B AQP5-HiBiT reporter cells
# Experiment: AQP5-HiBiT luminescence relative to vehicle (ratio to vehicle); higher = higher AQP5-HiBiT protein abundance
# Conditions: 10 µM; 18 h
# 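Also: monoclonal Beas-2B line stably carrying CMV promoter-driven AQP5-HiBiT, 5,000 cells per well in 384-well plates, lytic HiBiT plus LgBiT NanoLuc luminescence, FDA-approved drug library screen.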
row,SMILES,AQP5-HiBiT luminescence
1,CC(N)(Cc1ccc(O)c(O)c1)C(=O)O (stereo unspecified),1.03
2,CC(=O)Oc1ccccc1C(=O)Nc1ncc([N+](=O)[O-])s1 [Nitazoxanide],0.386
3,CO/N=C(\C(=O)N[C@@H]1C(=O)N2C(C(=O)OC(C)OC(C)=O)=C(COC(N)=O)CS[C@H]12)c1ccco1 (stereo partly specified) [Cepazine],0.782
4,CNC[C@@H](O)c1ccc(O)c(O)c1 [L-Adrenaline],1.13
5,CC(=O)OCC(=O)[C@@]1(O)CC[C@H]2[C@@H]3CCC4=CC(=O)CC[C@]4(C)[C@H]3C(=O)C[C@@]21C [Cortisone acetate],0.916
6,C[C@@H](O[C@H]1OCCN(Cc2nn(P(=O)(O)O)c(=O)[nH]2)[C@H]1c1ccc(F)cc1)c1cc(C(F)(F)F)cc(C(F)(F)F)c1 [Fosaprepitant dimeglumine],0.851
7,NC(=O)N/N=C/c1ccc([N+](=O)[O-])o1 [Furacilin],0.826
8,CCOC(=O)C(C)(C)Oc1ccc(Cl)cc1 [Clofibrate],0.775
9,CC(=O)OCC[N+](C)(C)C [Acetylcholine chloride],1.11
10,CC(C)(C)NCC(O)COc1cccc2c1CCC(=O)N2 (stereo unspecified) [Carteolol hydrochloride],1.02
11,CN(C)C/C=C/C(=O)Nc1cc2c(Nc3ccc(F)c(Cl)c3)ncnc2cc1O[C@H]1CCOC1 [Afatinib (BIBW2992)],2.16

# Source: the supplement of paper PMC8821664
